# In the supplement of paper PMC11417369:
# ± gives the standard deviation of the averaged measurements. The list shows a part of the results.
# Test system: PfAP2-I AP2 domain 3 (GST-tagged)
# Experiment: gcPBM binding intensity (ln(normalized median fluorescence intensity)); higher = stronger DNA binding
# Method in brief: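 The binding buffer was 1× PBS containing 1% milk, 0.2 mg/ml BSA, 0.5% salmon testes DNA and 0.03% Triton X-100. In it, GST-tagged P. falciparum DNA-binding domains expressed in E. coli were applied for 1 h to an Agilent 4 × 180k array of primer-extended double-stranded 36-bp intergenic genomic probes plus negative controls. Binding intensity, read with Alexa488 anti-GST antibody and a 488 nm scan, is the highest Masliner-normalised natural-log median intensity across replicate spots of either probe orientation.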
row,Sequence,gcPBM binding intensity (ln)
1,ATTAAATCCGCACGCACACACACATATTAATAAAAA [CACACA_site3992],8.96 ± 0.13
2,ACATGTCTTAAAAGACGTACATATAAAAGAACCCTA [XGTACX_site8940],7.95 ± 0.2
3,AATATTAAAGAATAATGTACAAAATAAAAGCAAAGA [XGTACX_site3550],8.22 ± 0.3
4,AAACAAAAAAATTGAAATAAAATGAAGTAAATGAAC [TGCATGCA_negctrl_site129],8.21 ± 0.67
5,TTATTTTTTAAAAGTAGTACAAATTTTTATAGAAAA [XGTACX_site7407],7.91 ± 0.31
6,ATTCCTTGGTTGTATAGTACTTTGGTTAAACATAAA [XGTACX_site6967],8.03 ± 0.6
7,TATCTCATAGTATACACACACACACGCGCACATATA [CACACA_site6917],8.34 ± 0.67
8,TGTATATATTATATTTGTACATATAAAACTATATGT [XGTACX_site4782],7.67 ± 0.45
9,TTAAATATATGTAATACGCACACTTAATATTTTGAG [CACACA_site4170],8.18 ± 0.35
10,AAAAAAAAAAAAAAAACATGCAATAAAGTGTGCGTA [TGCATGCA_site982],8.81 ± 0.75
11,TTTTGGTGGGTTACAAGTACTCAAAATGGATTGTTA [XGTACX_site1951],8.66 ± 0.17
12,TTTCGAAAAACAACAAGAAAAAAAAAAAAAAAAAAA [XGTACX_negctrl_site449],8.14 ± 0.73
13,TCACATACATTACTTACACACCATATTGATATATAC [CACACA_site6353],8.14 ± 0.69
14,CAAAATATTTATATCACACATATAAATAAAAATAAA [CACACA_site6028],7.59 ± 0.43
15,ATTAACATTTTCGTATGTACATATATAATATATGTT [XGTACX_site7184],8.05 ± 0.32
16,TTTCCAAATACAACTACACACAAACAAAAATTATAT [CACACA_site4641],7.92 ± 0.63
17,ATGTTTATTTATTTATGTACTTATATATTTATATAT [XGTACX_site7924],7.97 ± 0.41
18,AATAAAAATAAAAATTGTACACTTTTTTAATATTTA [XGTACX_site892],7.53 ± 0.34
19,AATGTGCACACGCGTACACACAAAAAAAGAAAAAAA [CACACA_site7031],9.31 ± 0.31
20,TATTATTTGAGTAGTTGTACTCATTAATATATAAAA [XGTACX_site3468],7.63 ± 0.46
21,TATTAATTTCACCTTTCACATATGGAAAAAAAAAAA [CACACA_negctrl_site1243],7.96 ± 0.62
22,AAGAAAAAGACTTCATGAAAAAGAATTTTTTTAATT [TGCATGCA_negctrl_site473],7.36 ± 0.76
23,TTATAATCAATGAATACACACATATATTTAATTAAT [CACACA_site3613],7.45 ± 0.53

row,Sequence,gcPBM binding intensity (ln)
1,AATTTTCCATAGATTGTGCACAAATTTTTATTTTGT,10.9 ± 0.2
2,ATATATTTTTTTTTTATTTTATTATTATAATTTATC [XGTACX_negctrl_site16],7.58 ± 0.69
3,ATTTTATTTTTTTGAAGTACGAATTCCGAGAAGAAA [XGTACX_site43],8.02 ± 0.22
4,TATTCAAAAATATAAACAATGAAACAGTATAATATG [CACACA_negctrl_site1482],7.75 ± 0.54
5,TATAGTTCTTCTATTTGTACATATATTATTATTTAA [XGTACX_site895],7.73 ± 0.48
6,ATATATCAAGGGAGTGAATGTTATGCATATGAATAT [TGCATGCA_negctrl_site573],7.82 ± 0.83
7,AATAAATTAAATAAAAATGTTTAACATAAAATATGA [GTGCAC_negctrl_site373],7.5 ± 0.42
8,GGATATTATATAAAGTGTACAAGACAAATATATACA [XGTACX_site8173],7.85 ± 0.47
9,AAATTAACAAACTGTAGTACTAACAATATATACAAA [XGTACX_site1772],7.84 ± 0.49
10,ATTATAATTATCAAGGTGCGTGTATTATAATAAATA [GTGCAC_site9917],8.64 ± 0.33
11,TAATATAATAATAATTGTACTTTTCATAGTGTAATT [XGTACX_site8152],7.64 ± 0.36
12,AAAAAAAAAAAACACACACACAAAATAAACAAACAA [CACACA_site2721],7.92 ± 0.28
13,AAAGAAATGAAATATACACACATACATATATACATA [CACACA_site9335],7.54 ± 0.5
14,AATTAAAAAAGTAATTAACACACAATAATGTAATGC [CACACA_site9388],7.75 ± 0.68
15,GTTCTGTAAATACGTGCACACACAAATCACAAATGT [CACACA_site7999],10.7 ± 0.16
16,TTTTTTTTCTTTTTTTGTACATAATAATATATAAAT [XGTACX_site6778],7.68 ± 0.35
17,GATATATTTTATATATGTACATACAATGGTAAATAT [XGTACX_site2759],7.97 ± 0.54
18,TATTCTTACAAAAGTAGTACAATCATTCATATTTTT [XGTACX_site631],7.76 ± 0.3
19,AAAAATGAAAAATGAAAAATGAAAAATGAAAAATAA [CACACA_negctrl_site695],7.87 ± 0.24
20,TAGTTTCAAGTAGGACGTACATATAAAAGGATTTTT [XGTACX_site7136],7.91 ± 0.57
21,TATATATATATAATTGTGCACATAATTTTAAACCAA,11.1 ± 0.13
22,TATGTGTGAAAAAAATGTACATATATATAAATTATA [XGTACX_site7202],7.88 ± 0.36
23,ATATATATATATAATAGTACATATATTTTGAAAGAT [XGTACX_site5800],8.96 ± 0.13

row,Sequence,gcPBM binding intensity (ln)
1,AACTGTAAAAAATATAAACACACATAGAAATATATA [CACACA_site8002],7.66 ± 0.61
2,TATTTTACACATTTACGTACATAAATATATATATAT [XGTACX_site8788],9.175 ± 0.064
3,TACGCACAAAAATATACACACACACCGATATATTTA [CACACA_site9213],7.78 ± 0.42
4,AGACATTTTTAAGCAAAACATTCATCATCTTATAAT [CACACA_negctrl_site1539],7.76 ± 0.63
5,CTAACAACCAAACGCACACACACAAAAAAAAAAATA [CACACA_site400],8.625 ± 0.049
6,TTTGAAATGATATATAAACACACATATATATATATA [CACACA_site9170],9.52 ± 0.18
7,AACAACTATTAATTTACACACATGTATATATCTTAC [CACACA_site7459],7.88 ± 0.79
8,TATTAAAAGGTGAGTACACACATATATGCGTATATA [CACACA_site2102],7.99 ± 0.19
9,ATATTGAATTCCAACACATGCAAAACTTTCGGTTTT [TGCATGCA_site485],7.79 ± 0.6
10,TCTATGTAGTTTTTATGTACTAAATAAATAAATAAA [XGTACX_site2599],7.94 ± 0.54
11,TAGAAGCAGAAACACACACACATACATACACATACA [CACACA_site1467],7.91 ± 0.4
12,ACTATTAACAGTGTAGTGCAAAAAGGTTAATTATTA,10.5 ± 0.34
13,TAAATGTCCTTATTTGCACACACACCGATAAGAAAT [CACACA_site5723],9.79 ± 0.15
14,TTTTCAATATATATTTGTACTTTATTTTATGATATT [GTGCAC_negctrl_site732],7.75 ± 0.6
15,GCATTCATTTTTAATACACACAAAAAAAAAATAAAA [CACACA_site2408],8.09 ± 0.15
16,TACATATATATTTGTTCACACACACCCAAAAAAAAA [CACACA_site8788],8.2 ± 0.37
17,TTCTTTTATAAAAGTAGTACAATTATATTGTAATTA [XGTACX_site2855],7.915 ± 0.064
18,TCTTTTATATTGTAGAGTACATATTTTCAATATATA [XGTACX_site5586],7.76 ± 0.35
19,GTGATACGCTATAGGACACACGCTTAATAATTATAA [CACACA_site1694],7.84 ± 0.3
20,AAATTGTCAAAACACGCACACACATATACATAATAA [CACACA_site1743],8.23 ± 0.54
21,ATCATAAATTATTATACACACAATACGTGACCTATT [CACACA_site1906],8.06 ± 0.62
22,TTTTAAGGTGTGAAGGTGCAAAAAGGTAAATAGGAA,11.2 ± 0.56
23,AAAATACATAAACACACACACACACCGATATATATA [CACACA_site9186],8.28 ± 0.67

row,Sequence,gcPBM binding intensity (ln)
1,CACAAACACCCAAACACACACACACCGACATACATA [CACACA_site4410],7.97 ± 0.4
2,TAAACAGAAGCACATACACACACTCAAAAAAAAAAA [CACACA_site3051],8.18 ± 0.53
3,AAAAAAAAAAAAGGCACACAAACATATGTAGACATA [CACACA_site2284],8.09 ± 0.32
4,TCGTGTGTAATATTATATATATATATATAATATATA [TGCATGCA_negctrl_site289],8.38 ± 0.15
5,CAATTTGGTGTACAGGTGCACATGCCTCACGATAAA [GTGCAC_site9650],10.2 ± 0.51
6,AAAAAAAAAAAAAAATGTACATATTAAGTATAATTA [XGTACX_site4616],8.1 ± 0.47
7,GAAAAATGTAAATACATATATGTACACAAATATATA [GTGCAC_negctrl_site557],7.74 ± 0.44
8,TTAGCTCAATTTTTGGGTACACACAAATGTATAATA [XGTACX_site5003],7.71 ± 0.3
9,AATATTTATAAATTTACACACACACGGGTGAACATA [CACACA_site6979],7.79 ± 0.62
10,TTTAATTCCATAAGTAAACACACAAATGCCAAAATT [CACACA_site9049],8.04 ± 0.7
11,ATTCTAAATTAAAATACACACATATATACATAATAT [CACACA_site2792],7.76 ± 0.48
12,TTCTGCAGCAATGTTTTTTTTAAATATTTATATGGT [CACACA_negctrl_site1815],8.16 ± 0.52
13,AAAAAAATAACAAAGTGTACTTTTATATTTTACATA [XGTACX_site8954],7.67 ± 0.29
14,ACCCATTTTAATTTAGTGCACATTTTACCTTTATAC,11.4 ± 0.35
15,GCTAGTTTTTTTTGGCGTACAGTACCGGTTTACTTT [XGTACX_site2606],8.52 ± 0.31
16,TTTTTTTCTTTTTCAAAAAAAAAAAAAAAAAAAATA [GTGCAC_negctrl_site329],7.3 ± 0.22
17,CATACCATACATAAAACACACAAAATTTACATAATA [CACACA_site3100],7.71 ± 0.4
18,TATAGTTTTATTATTTATGTGTTAAAATTATACAAG [TGCATGCA_negctrl_site246],7.46 ± 0.38
19,TTCCTCTTAATATGTGCACACTAAATTATAACATAA [CACACA_site3260],10.19 ± 0.021
20,TATAAATATATATGTACACACATATACATGTTGAAT [CACACA_site3118],7.79 ± 0.35
